Measurements reported in article PMC11079024, “Identification of a family of species-selective complex I inhibitors as potential anthelmintics” (Nature Communications, 2024).

Tests used:
[1] = system: L1 wild-type C. elegans (N2); assay: microbe, parasite or virus in culture; conditions: Caenorhabditis elegans; for viability at 0.2 µM: read-out: C. elegans L1 development and viability (6-day growth), dose 0.2 µM; for viability at 0.4 µM: read-out: C. elegans L1 development and viability (6-day growth), dose 0.4 µM; for viability at 0.8 µM: read-out: C. elegans L1 development and viability (6-day growth), dose 0.8 µM; for viability at 3.1 µM: read-out: C. elegans L1 development and viability (6-day growth), dose 3.1 µM; for viability at 6.3 µM: read-out: C. elegans L1 development and viability (6-day growth), dose 6.3 µM; for viability at 12.5 µM: read-out: C. elegans L1 development and viability (6-day growth), dose 12.5 µM; for viability at 25 µM: read-out: C. elegans L1 development and viability (6-day growth), dose 25 µM; for viability at 50 µM: read-out: C. elegans L1 development and viability (6-day growth), dose 50 µM; for viability at 100 µM: read-out: C. elegans L1 development and viability (6-day growth), dose 100 µM; for viability at 200 µM: read-out: C. elegans L1 development and viability (6-day growth), dose 200 µM
[2] = system: L1 wild-type C. elegans (N2); conditions: for LC50: caenorhabditis elegans; for viability score (0-1) relative to DMSO controls: C. elegans (N2), 1 = like DMSO control, 0 = death
L1 wild-type C. elegans = conditions: for KCN survival assay value relative to DMSO control: 15 hour drug + KCN treatment; for KCN survival assay value relative to DMSO control / C. elegans L1 relative motility, 3-hour post 200 µM KCN dilution: Mean of replicates
in vitro = conditions: human
[3] = 144 h, read-out: C. elegans (Wild type) Development & Viability Assay LC50
[4] = 144 h, individual replicate (Rep)
[5] = read-out: C. elegans (Wild type) Development & Viability Assay LC50
[6] = read-out: C. elegans Wt viability log10 LC50 (converted)
[7] = dose 0.2 µM, individual replicate (Rep)
[8] = dose 0.4 µM, individual replicate (Rep)
[9] = dose 3.1 µM, individual replicate (Rep)
[10] = dose 12.5 µM, individual replicate (Rep)
[11] = dose 25 µM, individual replicate (Rep)
[12] = dose 100 µM, individual replicate (Rep)
[13] = dose 6.3 µM, individual replicate (Rep)

## Fc1ccc(C(c2ccc(F)cc2)N2CCN(C/C=C/c3ccccc3)CC2)cc1 [Flunarizine, reference compound]
[1]; [3]
  LC50: > 200 µM
[1]; 144 h, Mean of replicates
  viability at 0.2 µM: 93.8%
  viability at 0.8 µM: 97.7%
  viability at 3.1 µM: 94.9%
  viability at 6.3 µM: 97.5%
  viability at 12.5 µM: 95.7%
  viability at 50 µM: 98.3%
  viability at 100 µM: 93%
  viability at 200 µM: 100%
[1]; [4]
  viability at 0.2 µM: 96.4%
  viability at 0.4 µM: 100%
  viability at 0.8 µM: 100%
  viability at 3.1 µM: 100%
  viability at 6.3 µM: 100%
  viability at 12.5 µM: 100%
  viability at 25 µM: 100%
  viability at 50 µM: 100%
  viability at 200 µM: 100%
[2]; N2, Caenorhabditis elegans, 6 days, 0.4 µM
  C. elegans L1 development and viability (6-day growth): 0.943
[2]; N2, Caenorhabditis elegans, 6 days, 0.8 µM
  C. elegans L1 development and viability (6-day growth): 0.931
[2]; N2, Caenorhabditis elegans, 6 days, 3.1 µM
  C. elegans L1 development and viability (6-day growth): 0.847
[2]; N2, Caenorhabditis elegans, 6 days, 12.5 µM
  C. elegans L1 development and viability (6-day growth): 0.870
[2]; N2, Caenorhabditis elegans, 6 days, 25 µM
  C. elegans L1 development and viability (6-day growth): 0.886
[2]; N2, Caenorhabditis elegans, 6 days, 50 µM
  C. elegans L1 development and viability (6-day growth): 0.949

## CC(C)Cc1ccc(C(C)c2nc3ccccc3n2C)cc1 (stereo not shown) [NPD8790]
L1 wild-type C. elegans; 50 μM compound, […], hit = relative motility below 0.25 3 hours after removal of KCN
  Screen "Hit": Y (hits were identified as compounds that reduced relative motility below 0.25 (75% reduction))
[1]; [3]
  LC50: > 100 µM
[1]; [5]
  LC50: > 1000 µM
[1]; read-out: C. elegans Wt viability LC50
  LC50: > 500 µM
[1]; [6]
  LC50: > 500 µM
In vitro; HEK293 Cell Viability Assay LC50, 2 days exposure
  CC50 at 2 days: > 50 µM
In vitro; HEK293 Cell Viability Assay LC50, HEK293 cells, estimated from fitted dose-response curves
  CC50 at 2 days: 90.8 µM

## C=C(C)[C@H]1Cc2c(ccc3c2O[C@@H]2COc4cc(OC)c(OC)cc4[C@@H]2C3=O)O1 [Rotenone, reference compound]
[1]; [3]
  LC50: 3.1 µM
[1]; 144 h, Mean of replicates
  viability at 0.2 µM: 92.7%
  viability at 0.4 µM: 91.4%
  viability at 0.8 µM: 93.2%
  viability at 3.1 µM: 60%
  viability at 6.3 µM: 3.5%
  viability at 12.5 µM: 1.7%
  viability at 25 µM: 2%
  viability at 50 µM: 3.3%
  viability at 100 µM: 3.5%
[1]; [4]
  viability at 12.5 µM: 2.2%
[2]; N2 (wild type)
  LC50: 3.39 µM
[2]; [7]
  C. elegans L1 development and viability (6-day growth): 0.782
[2]; [8]
  C. elegans L1 development and viability (6-day growth): 0.741
[2]; dose 0.8 µM, individual replicate (Rep)
  C. elegans L1 development and viability (6-day growth): 0.796
[2]; [9]
  C. elegans L1 development and viability (6-day growth): 0.608 and 0.451 and 0.742
[2]; [10]
  C. elegans L1 development and viability (6-day growth): 0.013
[2]; [11]
  C. elegans L1 development and viability (6-day growth): 0.015 and 0.014 and 0.031
[2]; dose 50 µM, individual replicate (Rep)
  C. elegans L1 development and viability (6-day growth): 0.025 and 0.023 and 0.051
[2]; [12]
  C. elegans L1 development and viability (6-day growth): 0.024 and 0.058

## Cc1nc2ccccc2n1Cc1ccc(Cl)cc1 [STK697993]
[1]; [3]
  LC50: 31.5 µM
[1]; [5]
  LC50: 46.1 µM
[1]; [6]
  LC50: 46.1 µM
[2]; 2 µM
  viability score (0-1) relative to DMSO controls: 0.976
[2]; 3.9 µM
  viability score (0-1) relative to DMSO controls: 0.983
[2]; 15.6 µM
  viability score (0-1) relative to DMSO controls: 0.900
[2]; 31.3 µM
  viability score (0-1) relative to DMSO controls: 0.109
[2]; 62.5 µM
  viability score (0-1) relative to DMSO controls: 0.004
[2]; 125 µM
  viability score (0-1) relative to DMSO controls: 0.0019
[2]; 250 µM
  viability score (0-1) relative to DMSO controls: 0.036

## Cc1cc(O)c2c(c1)O[C@@]1(C)CC[C@H]3C(C)(C)CCC[C@]34CO[C@@H]2[C@H]41 [Siccanin]
L1 wild-type C. elegans; dose 0.1 µM
  KCN survival assay value relative to DMSO control: 0.898
  C. elegans L1 relative motility, 3-hour post 200 µM KCN dilution: 0.898
L1 wild-type C. elegans; dose 0.2 µM
  KCN survival assay value relative to DMSO control: 0.977
  C. elegans L1 relative motility, 3-hour post 200 µM KCN dilution: 0.977
L1 wild-type C. elegans; dose 0.4 µM
  KCN survival assay value relative to DMSO control: 0.943
  C. elegans L1 relative motility, 3-hour post 200 µM KCN dilution: 0.943
L1 wild-type C. elegans; dose 0.8 µM
  KCN survival assay value relative to DMSO control: 0.815
  C. elegans L1 relative motility, 3-hour post 200 µM KCN dilution: 0.815
L1 wild-type C. elegans; dose 3.1 µM
  KCN survival assay value relative to DMSO control: 0.695
  C. elegans L1 relative motility, 3-hour post 200 µM KCN dilution: 0.695
L1 wild-type C. elegans; dose 6.3 µM
  KCN survival assay value relative to DMSO control: 0.485
  C. elegans L1 relative motility, 3-hour post 200 µM KCN dilution: 0.485
L1 wild-type C. elegans; dose 12.5 µM
  KCN survival assay value relative to DMSO control: 0.200
  C. elegans L1 relative motility, 3-hour post 200 µM KCN dilution: 0.200
L1 wild-type C. elegans; dose 25 µM
  KCN survival assay value relative to DMSO control: 0.036
  C. elegans L1 relative motility, 3-hour post 200 µM KCN dilution: 0.036
L1 wild-type C. elegans; dose 50 µM
  KCN survival assay value relative to DMSO control: 0.015
  C. elegans L1 relative motility, 3-hour post 200 µM KCN dilution: 0.015
L1 wild-type C. elegans; dose 100 µM
  KCN survival assay value relative to DMSO control: 0.017
  C. elegans L1 relative motility, 3-hour post 200 µM KCN dilution: 0.017
L1 wild-type C. elegans; N2 (wild type), caenorhabditis elegans
  LC50: 6.34 µM
L1 wild-type C. elegans; dose […]
  C. elegans L1 relative motility, 3-hour post 200 µM KCN dilution: 0.895
[1]; [3]
  LC50: 15.2 µM
[1]; 144 h, Mean of replicates
  viability at 0.4 µM: 97.8%
  viability at 0.8 µM: 100%
  viability at 3.1 µM: 98.1%
  viability at 6.3 µM: 97.5%
  viability at 12.5 µM: 69.5%
  viability at 25 µM: 9.7%
  viability at 50 µM: 2%
  viability at 100 µM: 1.3%
  viability at 200 µM: 0.12%
[1]; [4]
  viability at 0.4 µM: 100%
  viability at 0.8 µM: 100%
  viability at 3.1 µM: 100%
  viability at 6.3 µM: 100%
[2]; [8]
  C. elegans L1 development and viability (6-day growth): 0.911
[2]; [9]
  C. elegans L1 development and viability (6-day growth): 0.923
[2]; [13]
  C. elegans L1 development and viability (6-day growth): 0.900
[2]; [12]
  C. elegans L1 development and viability (6-day growth): 0.012 and 0.0064 and 0.019

## O=C(NCCc1ccc(Cl)cc1)c1ccccc1C(F)(F)F [Wact-11]
[2]
  LC50: 0.42 µM
[2]; [7]
  C. elegans L1 development and viability (6-day growth): 0.955 and 0.982
[2]; dose 0.4 µM, Mean of replicates
  C. elegans L1 development and viability (6-day growth): 0.818
[2]; dose 0.8 µM, Mean of replicates
  C. elegans L1 development and viability (6-day growth): 0.557
[2]; dose 3.1 µM, Mean of replicates
  C. elegans L1 development and viability (6-day growth): 0.003
[2]; dose 6.3 µM, Mean of replicates
  C. elegans L1 development and viability (6-day growth): 0.000
[2]; [13]
  C. elegans L1 development and viability (6-day growth): 0.000
[2]; dose 12.5 µM, Mean of replicates
  C. elegans L1 development and viability (6-day growth): 0.000
[2]; [10]
  C. elegans L1 development and viability (6-day growth): 0.000
[2]; dose 25 µM, Mean of replicates
  C. elegans L1 development and viability (6-day growth): 0.000
[2]; [11]
  C. elegans L1 development and viability (6-day growth): 0.000
[2]; dose 50 µM, Mean of replicates
  C. elegans L1 development and viability (6-day growth): 0.0005
[2]; dose 100 µM, Mean of replicates
  C. elegans L1 development and viability (6-day growth): 0.000
[2]; [12]
  C. elegans L1 development and viability (6-day growth): 0.000

Values joined by “and” are separate entries in the source; they are usually repeats but may differ in a detail not shown here. Identical values can stand only once. Like-named read-outs stand apart in the source and are kept apart here.
